# Measured values taken from PubChem BioAssay AID686978 (National Center for Advancing Translational Sciences (NCATS), 2013).
# In all, about 420,000 compounds went through this assay and about 64,000 (15%) were called active. Inconclusive means that the source gave no clear call. Such entries were picked first, then a sample of the others. The call rests on the fitted dose curve; in most records, active means well fitted inhibition curve with a large enough effect; inconclusive means small, poorly fitted or top-dose-only effect; inactive means flat fitted curve, though single readings scatter. Potencies of inconclusive entries are left out as doubtful fits.
# Test: qHTS for Inhibitors of human tyrosyl-DNA phosphodiesterase 1 (TDP1): qHTS in cells in absence of CPT; further: nearly all actives have a fitted effect of over 55% in size
# Details: DT40 Tdp1-/- hTDP1 cells, no CPT, ATP luminescence, 48 h; activity change, negative = growth inhibition: at 46.2 µM (top of the series) unless noted
# In short: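 DT40 Tdp1-/-;hTDP1 cells, no CPT (DMSO vehicle only), 400 cells/well; compounds pin-transferred; ≥48 hr, 37 °C; CellTiter-Glo 30 min RT dark, luminescence read.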
# On the % scale 0 is the no-effect control and ±100 the full control effect; potency means the concentration at half of the fitted maximal effect; tags describe the fitted curve by direction and shape.
SMILES,Potency,"activity change, negative = growth inhibition"
CC(=O)N1CCc2cc(S(=O)(=O)CCC(=O)NCc3ccc(C)o3)ccc21,"inconclusive [inhibitor, single point]",–
CCCCOc1ccc(-c2cc(C(F)(F)F)c(C#N)c(SCC(=O)O)n2)cc1,"inconclusive [inhibitor, single point]",–
NS(=O)(=O)c1ccc(CNC(=O)/C=C/c2ccc(Cl)c(Cl)c2)cc1,"inconclusive [inhibitor, single point]",–
CCOC(=O)c1c(NC(C)=O)sc2c(OC)c(Br)ccc12,–,inactive: -21.9%
CCCCn1c(=O)[nH]c(=O)c2c(C(=O)OCC)cc(-c3cccs3)nc21,"inconclusive [inhibitor, single point]",–
COc1ccc(OCCNc2cc(N3CCOCC3)ccc2[N+](=O)[O-])cc1,"inconclusive [inhibitor, partial curve, poor fit]",–
COCCn1c(SCC(=O)NCCCN2CCCC2=O)nc2ccccc2c1=O,–,inactive: 3.99%
CCC(=O)N1CCc2cc(S(=O)(=O)N3CCN(C(=O)c4ccco4)CC3)ccc21,"inconclusive [inhibitor, partial curve]",–
CCOC(=O)c1cccc(NC(=O)c2cnc3sc(N4CCOCC4)nn3c2=O)c1,"inconclusive [inhibitor, partial curve]",–
CCc1ccc2nc(N(CCCN(C)C)C(=O)c3ccc(S(=O)(=O)N4CCc5ccccc5C4)cc3)sc2c1,active: 5.17 µM,–
COc1ccc(CCNC(=S)N2CCN(S(=O)(=O)c3ccc(F)cc3)CC2)cc1,–,inactive: 3.3%
O=C(C1=C[C@H](c2coc3ccccc3c2=O)C[C@H](OCc2ccc(CO)cc2)O1)N1CCOCC1,–,inactive: -14.3%
COC(=O)c1ccccc1NC(=O)CSc1nc(C)c(Cl)c(C)c1C#N,–,inactive: -25.2%
S=C(N/N=C/c1ccc2ncccc2c1)Nc1cccnc1,"inconclusive [inhibitor, single point]",–
Cc1ccc(-c2cc(C(=O)Oc3ccc(C#N)cc3)no2)cc1C,"inconclusive [inhibitor, partial curve, poor fit]",–
NS(=O)(=O)c1ccc(CCNC(=O)CNCCc2ccccc2)cc1,–,inactive: -21.8%
C=CCn1c(SCC(=O)c2cccs2)nnc1-c1cccc(OC)c1,–,inactive: -24.7%
Cn1c(=O)c2c(nc(NCc3ccc4c(c3)OCO4)n2Cc2ccccc2Cl)n(C)c1=O,"inconclusive [inhibitor, single point]",–
Cc1c(Cl)cccc1N/C(SCC(=O)N1CCCCCC1)=C(/C#N)c1nc2ccccc2s1,active: 11.6 µM,–
O=C(CN1CCCN(S(=O)(=O)c2ccc(F)cc2)CC1)Nc1cccc(F)c1,"inconclusive [inhibitor, partial curve]",–
CC1CCN(C(=O)/C(=C\c2ccccc2)NC(=O)c2ccccc2)CC1,–,inactive: -22.2%
N=c1oc2ccc(Br)cc2cc1C(=O)NC1CCCCCC1,active: 9.2 µM,–
COc1cc(OC)c(NC(=O)CCNC(=O)Cn2cnc3ccccc3c2=O)cc1Cl,"inconclusive [inhibitor, single point]",–
O=C1NC(=O)C2(CCCc3ccccc32)N1 (configuration not stated),–,inactive: -11.4%

SMILES,Potency,"activity change, negative = growth inhibition"
Cc1ccc2c(c1)c1c(c(=O)n(Cc3ccccc3)c(=O)n1CC(=O)Nc1ccccc1F)n2C,–,inconclusive: -15.3% [inhibitor]
O=C1c2c(-c3ccc(Br)cc3)noc2CCN1Cc1cn(C2CCCC2)nn1,"inconclusive [inhibitor, single point]",–
O=C(NCCc1ccccn1)c1cccc(S(=O)(=O)N2CCc3ccccc32)c1,"inconclusive [inhibitor, partial curve]",–
CC(NC(=O)c1cccs1)c1n[nH]c(=S)n1C (configuration not stated),–,inactive: -12.2%
c1cnc(N2CCN(c3ccc4ccccc4n3)CC2)nc1,active: 18.4 µM,–
N#CC(c1ccccc1)c1ccc2c(C(F)(F)F)cc(C(F)(F)F)nc2n1 (configuration not stated),active: 18.4 µM,–
Cn1ccnc1SCC(=O)NC1CCCC1,"inconclusive [inhibitor, full curve, poor fit]",–
Cc1cccc(/C=N/NC(=O)c2cccc(Cl)c2)n1,active: 16.4 µM,–
O=C(COc1ccccc1F)Nc1ccc(S(=O)(=O)NCc2ccco2)cc1,active: 18.4 µM,–
Nc1sc(-c2ccccc2)cc1C(=O)N/N=C/c1ccc(Cl)cc1,"inconclusive [inhibitor, partial curve, poor fit]",–
CCC(C)NC(=O)c1sc2nc(C)c(C(=O)Nc3ccc(C)cc3C)c(-c3ccc(NC(C)=O)cc3)c2c1N (configuration not stated),"inconclusive [inhibitor, single point]",–
COCCNc1ccc2cc(S(=O)(=O)N3CCCCC3)ccc2n1,"inconclusive [inhibitor, partial curve]",–
Cc1ccc2nc(NC(=O)CSc3nccn3Cc3ccc(F)cc3)sc2c1,active: 18.4 µM,–
COc1ccc(NS(=O)(=O)c2cc(NC(=O)C3CCCCC3)ccc2N2CCOCC2)cc1,active: 13 µM,–
CCCCN(CC)C(=O)Cn1cnc2sc(C)c(S(=O)(=O)N3CCC(C)CC3)c2c1=O,"inconclusive [inhibitor, partial curve]",–
CCN(CC)S(=O)(=O)c1ccc(OC(C)C)c(NC(=O)c2c3c(nc4ccccc24)CCN(Cc2ccccc2)C3)c1,active: 11.6 µM,–
CN(CC(=O)NCC(c1ccco1)N1CCCCC1)S(=O)(=O)c1ccc(Cl)cc1 (configuration not stated),"inconclusive [inhibitor, single point]",–
COc1ccc(/C=N\NC(=O)c2ccc(Cn3cc(Br)c([N+](=O)[O-])n3)o2)c(OC)c1C,"inconclusive [inhibitor, single point]",–
CC1(C(=O)NS(=O)(=O)c2cccc(Cl)c2)CCN1C(=O)Cc1ccsc1 (configuration not stated),–,inactive: -4.71%
Cc1cccc(C(=O)OCC(=O)NC(=O)Cc2ccccc2)c1O,–,inactive: 2.78%
Cc1cc(-c2nnc3n2N=C(c2ccccc2)CS3)n[nH]1,–,inactive: -10.1%
COc1ccccc1CNC(=O)c1ccc2c(=O)n(CC3CCCO3)c(=S)[nH]c2c1 (configuration not stated),"inconclusive [inhibitor, partial curve, poor fit]",–
N#Cc1ccccc1S(=O)(=O)N1CCN(C(=O)c2cn(-c3ccccc3)nc2-c2cccnc2)CC1,–,inactive: -18.6%
c1ccc(-c2nn3c(Cn4nnc5ccccc54)nnc3s2)cc1,"inconclusive [inhibitor, single point]",–

SMILES,Potency,"activity change, negative = growth inhibition"
Cc1ccc(-c2cc(C(=O)O)c3ccccc3n2)c(C)c1,–,inactive: -4.93%
COc1ccc(-c2cc3ccc(OCc4nn[nH]n4)cc3oc2=O)cc1,–,inactive: 6.88%
Cc1cc(NC(=O)CS(=O)(=O)c2cn(Cc3cccc(F)c3)c3ccccc23)no1,"inconclusive [inhibitor, single point]",–
C=CCOc1ccc(/C=C2\SC(N3CCCCC3)=NC2=O)cc1,"inconclusive [inhibitor, single point]",–
Clc1nnc(NC2CCCCC2)c(Cl)c1Cl,"inconclusive [inhibitor, single point]",–
CCN1C(=O)[C@H]2[C@@H](c3ccc(-c4cc(C(C)=O)cs4)cc3)N3CCCC[C@@]3(C(=O)OC)[C@H]2C1=O,active: 18.4 µM,–
CCc1ccc(NS(=O)(=O)c2[nH]ncc2C(=O)OC)cc1,"inconclusive [inhibitor, partial curve]",–
O=C(NCC(c1cccs1)N1CCOCC1)c1cccc(S(=O)(=O)Nc2ccc(F)cc2)c1 (configuration not stated),"inconclusive [inhibitor, single point]",–
CCCS(=O)(=O)N1CCC(C(=O)NCCOC)CC1,–,inactive: -32.7%
CCN1CCN(c2ccc(S(=O)(=O)N3CCCCC3)cc2NC(=O)c2cc3ccccc3o2)CC1,active: 16.4 µM,–
CCN(CC)S(=O)(=O)c1ccc(OC)nc1,–,inactive: -1.69%
COc1ccc(NC(=O)C2(C)CCN2Cc2ccc3ccccc3c2)cc1OC (configuration not stated),"inconclusive [inhibitor, single point]",–
COC(=O)c1cc(NC(=O)C(C)c2ccc(CC(C)C)cc2)ccc1O (configuration not stated),"inconclusive [inhibitor, partial curve, poor fit]",–
CCCCN1C(=O)C(CC(=O)NCCCN(C)C)CC(C(=O)N(C(C)C)C(C)C)=C1C (configuration not stated),–,inactive: 7.94%
Cc1cccnc1NC(=O)C1CC(=O)N(c2ccc3c(c2)OCCO3)C1 (configuration not stated),–,inactive: -2.76%
Cc1cc(F)ccc1NC(=O)C1CCC(CNS(=O)(=O)c2ccc3c(c2)CCCC(=O)N3)CC1 (configuration not stated),–,inactive: -27.6%
COc1ccc(NC(=O)C2Cc3cc(S(=O)(=O)N4CCCCC4)ccc3N2C(C)=O)cc1Cl (configuration not stated),"inconclusive [inhibitor, single point]",–
COc1ccccc1OCC(=O)NNC(=O)Nc1ccccc1,–,inactive: -5.5%
O=C(NNC(=O)C1CC1c1ccccc1)c1ccccc1[N+](=O)[O-] (configuration not stated),–,inactive: -22.8%
NNC(=O)CSc1c(-c2ccccc2)c2cc(Cl)ccc2[nH]c1=O,"inconclusive [inhibitor, partial curve, poor fit]",–
CCOC(=O)CCn1c(=O)c2c(nc(Br)n2Cc2ccccc2)n(C)c1=O,–,inactive: -50.8%
COc1ccc(OC)c(S(=O)(=O)NCC(c2cccs2)S(=O)(=O)c2ccc(F)cc2)c1 (configuration not stated),"inconclusive [inhibitor, single point]",–
CCn1cc(CN2CCOc3ccc(C(O)C4CCCCC4)cc3C2)c(C)n1 (configuration not stated),"inconclusive [inhibitor, single point]",–
COC(=O)[C@@]1(Cc2ccccc2)[C@H]2C(=O)N(Cc3ccccc3)C(=O)[C@H]2[C@H]2CN=C(SCC(=O)c3ccccc3)N21,active: 18.4 µM,–
